In PubChem BioAssay AID1240 (Sanford-Burnham Center for Chemical Genomics, 2008):
Hit rate of the full screen: of about 50,000 compounds, about 800 (1.6%) showed an effect of 50% or more. Some of the results follow.

target: Bcl-2-like protein 10 (Homo sapiens) (UniProt Q9HD36); test: TR3 peptide-Bcl-B binding displacers, biochemical primary FP assay, phenotype converters (AID 1240); conditions: GST-Bcl-B / FITC-TR3 peptide fluorescence polarization; stronger effect = higher value; compound at 3.75 mg/L;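 also: 0% = Bcl-B with tracer peptide and DMSO and 100% = tracer peptide lacking Bcl-B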
Sequence of UniProt Q9HD36 (Q9HD36 whole entry, looked up): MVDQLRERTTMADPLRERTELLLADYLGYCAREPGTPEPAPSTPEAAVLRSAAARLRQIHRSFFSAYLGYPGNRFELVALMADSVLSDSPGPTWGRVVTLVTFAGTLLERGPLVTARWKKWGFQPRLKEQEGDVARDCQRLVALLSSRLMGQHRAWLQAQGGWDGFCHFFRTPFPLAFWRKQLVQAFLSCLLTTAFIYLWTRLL

SMILES	displacement
CC(C)(C)C1(O)CC(C(F)(F)F)=NN1C(=O)COc1ccccc1 (centres undefined)	-7.4%
CC(=O)Oc1ccc2c(oc(=O)c3ccccc32)c1C	-5.1%
CCC(=O)Oc1cc2oc(CC)c(-c3nc(C)cs3)c(=O)c2cc1CC	6.6%
CC1=NN(c2cccc(Cl)c2)C(=O)/C1=C/C=C/c1cccc([N+](=O)[O-])c1	13.6%
COc1ccc(Br)cc1/C=C/C(=O)Nc1cccc(S(N)(=O)=O)c1	8.1%
CCOC(=O)CN1CC(O)=C(C=NCc2ccccc2)C1=O	2.8%
COc1ccccc1OCCOc1ccc(Br)cc1/C=C1/SC(=S)N(C)C1=O	14.4%
COc1ccc(Cl)cc1N(CC(=O)N1CCN(c2ccccc2)CC1)S(=O)(=O)c1ccccc1	-3.8%
O=C(Nc1cccc(-c2cn3ccccc3n2)c1)c1cccc(Br)c1	11.7%
N#CCCn1cc(/C=C2/NC(=S)N(c3ccc(-c4ccccc4)cc3)C2=O)c(-c2ccccc2)n1	-42%
C=CCOc1ccc(Cl)cc1/C=C1/C(=N)N2N=C(CCC)SC2=NC1=O	-25.3%
O=C(CCc1ccccc1)NCc1ccc(F)cc1	-1.3%
O=C(O)CN(Cc1ccco1)S(=O)(=O)c1ccccc1	-2.9%
Cc1ccc(C(=O)Nc2ccccc2C(=O)Nc2ccccc2C(=O)O)cc1	11.6%
CC(=O)NC1=NC(=O)/C(=C\c2ccc(C(C)(C)C)cc2)S1	11.4%
COc1ccc(C2NC(=S)NC(C)=C2C(=O)Nc2cccc(Cl)c2)cc1 (centres undefined)	20.9%
O=[N+]([O-])c1cccc(S(=O)(=O)/N=C(/Nc2ccccc2)c2ccccc2)c1	-3.4%
Cc1cc(C)n(C(=O)COc2ccc(Oc3ccccc3)cc2)n1	0%
COc1ccc(-c2cc(C(=O)Nc3ccccn3)c3ccccc3n2)cc1OC	-3.9%
O=C(O)CN1C(=O)/C(=C\c2ccccc2OCc2ccccc2)SC1=S	3%
O=c1cc(-c2ccccc2)nc2cc(-c3cccs3)[nH]n12	10.3%
Cc1cn(S(=O)(=O)c2cc([N+](=O)[O-])ccc2C)cn1	6.9%
CC(C)=C(NC(=O)c1ccccc1)C(=O)Nc1cccc(Br)c1	0.4%

SMILES	displacement
Nc1ccc2nc(SCC(=O)NC(c3ccccc3)c3ccccc3)sc2c1	-21.4%
COC(=O)c1ccc(C2CC(=O)NC(C)=C2C(=O)OCc2ccccc2)cc1 (centres undefined)	-8.8%
COc1cc(Br)cc(/C=C2\C(=O)NC(=O)N(c3cc(C)cc(C)c3)C2=O)c1OC	-9.1%
O=C(c1ccc(Cl)cc1)c1ccc2c(c1)CCCO2	1.7%
Cc1ccc(C(=O)/C(=C/c2ccc(-c3cccc([N+](=O)[O-])c3)o2)c2nc3ccccc3o2)cc1	13.2%
Fc1cccc(-c2nc3ccccc3[nH]2)c1	-0.3%
COc1ccc(C(=O)Nc2sc3c(c2C(N)=O)CCC(C(C)(C)C)C3)cc1 (centres undefined)	5.9%
O=C1C2C3C=CC(C3)C2C(=O)N1/N=C/c1cc(Br)c(O)cc1O (centres undefined)	13.1%
CCCCc1ccc(-c2nc(-c3cccnc3)no2)cc1	-8.8%
Cc1ccc(N2C(=O)CSC2c2cccc([N+](=O)[O-])c2)cc1 (centres undefined)	-7.2%
Cc1cc(NC(=O)c2ccc(Br)o2)ccc1NC(=O)c1ccccc1	7.8%
COc1ccc(Cc2noc(-c3ccc(OC)c(OC)c3)n2)cc1	11.6%
Cc1cc(/C=C2/SC(=O)NC2=O)c(C)n1-c1cccc(Cl)c1	18.6%
COc1cc(OC)c(OC)cc1CN1CCN(Cc2ccncc2)CC1	1.1%
Cc1ccc(NC(=O)/C=C/c2cccc([N+](=O)[O-])c2)c(Br)c1	13.6%
O=P(CO)(c1ccccc1)c1ccccc1	14.4%
COC(=O)COc1ccc(/C=C2\C(=O)NC(=O)N(c3ccc(C)cc3)C2=O)cc1OC	-15.9%
COc1cc(/C=C2\C(=O)N(c3ccc(S(N)(=O)=O)cc3)N=C2C)cc(Br)c1OCc1ccccc1	10%
COC(=O)C(C(c1ccccc1)c1cc2ccccc2[nH]1)[N+](=O)[O-] (centres undefined)	3.4%
CC1=C(C#N)C(c2cccc(Cl)c2Cl)C2=C(CC(C)(C)CC2=O)N1 (centres undefined)	-10.1%
O=C(Nc1ccc(F)cc1F)c1sc2ccccc2c1Cl	21.9%
CC1CCc2c(nc3ccccc3c2C(=O)O)C1 (centres undefined)	-14.7%
CC1=N/C(=C\c2ccc(OC(F)F)cc2)C(=O)O1	5.2%

SMILES	displacement
Cn1c(/C=C/c2ccc(C(=O)c3ccccc3)o2)nc2ccccc21	29.1%
Cc1ccc(C2N(c3ccccc3)C(=O)N3CCCN23)cc1 (centres undefined)	0.8%
CC(C)(C)C(=O)/C=C(O)\C(O)=C/C(=O)C(C)(C)C	2.6%
COc1cccc(/C=C2/C=C(c3ccc(Br)cc3)OC2=O)c1OC(C)=O	27.1%
CCOc1ccc(N2C(=O)CC(NCc3cccnc3)C2=O)cc1 (centres undefined)	-6.7%
CC1C(O)C(C)C(c2ccccc2)N(C)C1c1ccccc1 (centres undefined)	-2.6%
O=C1C2CC=C(Cl)CC2C(=O)N1CN(Cc1ccco1)CN1C(=O)C2CC=C(Cl)CC2C1=O (centres undefined)	-0.2%
Cc1ccc(-c2ccccc2)n1-c1ccc(C(=O)NN)cc1	12.3%
O=C(Nc1cc([N+](=O)[O-])ccc1Cl)C1CC2CCC1C2 (centres undefined)	8.8%
CS(=O)(=O)N1CCN(S(=O)(=O)c2ccc(Cl)cc2)CC1	-13.4%
CCc1ccccc1NCC(O)Cn1c2ccccc2c2ccccc21 (centres undefined)	3%
CCOC(=O)c1c(NC(=O)c2ccc([N+](=O)[O-])cc2)sc2c1CCC2	9.1%
CCOC(=O)c1c(NC(=O)C(Cl)(Cl)Cl)sc2c1CCC2	-3.5%
C(=N\N=C(\c1ccccc1)C12CN3CN(CN(C3)C1)C2)/c1cccnc1	-0.1%
COCCCNC(=O)c1cccc([N+](=O)[O-])c1C	-11.3%
Cc1ccc(N2C(=O)CC(NCCc3cccc(Cl)c3)C2=O)cc1 (centres undefined)	41.2%
C=CCN1C(=O)/C(=C\c2ccc(N(CC)CC)cc2O)C(=O)NC1=S	22.6%
COc1ccc(CN2CCN(Cc3cccc([N+](=O)[O-])c3)CC2)c2ccccc12	-34.7%
CCCCOC(=O)c1cccc(C(=O)O)n1	10.5%
O=C(NCCCn1ccnc1)c1ccc(Cl)cc1[N+](=O)[O-]	-8%
O=C1CC(N2CCN(c3ccccc3)CC2)C(=O)N1CCc1ccccc1 (centres undefined)	11.1%
COc1ccc(C2SCC(=O)N2Cc2ccco2)c(OC)c1 (centres undefined)	-9%
O=C(/C=C/c1cccc(N2C(=O)c3ccccc3C2=O)c1)c1cccc(N2C(=O)c3ccccc3C2=O)c1	-0.1%
